Test results reported in PubChem BioAssay (NCI).
Several values for one entry are separate records, joined by “and”; a condition that tells them apart may be missing. Equal values may be shown once.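 How tested: cells in 96-well plates exposed to compound for 48 hours at five concentrations. GI50: concentration for 50% inhibition of growth. Definition used: TGI = concentration required for complete inhibition of growth.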

System: NCI-H322M lung
Assay: NCI tumour cell line growth inhibition, 48 h

O=C(C/C(CCC(=O)N(Cc1ccccc1)Cc1ccccc1)=N/Nc1ccc([N+](=O)[O-])cc1[N+](=O)[O-])c1ccccc1
TGI: > 100 µM

N#Cc1ccc2cc3c(cc2c1)OCO3
TGI: > 100 µM

COc1ccccc1NCc1cccc2c(=O)c3ccc(Cl)cc3oc12
TGI: > 100 µM

O=C(NCCNc1nccc(-c2c(-c3cccc(O)c3)nc3sccn23)n1)c1ccccc1
GI50: 26.3 µM | TGI: > 100 µM

CC(=O)C(=[N+]=[N-])C(=O)N(C)CCC#N
TGI: > 10 µM

CN(C(=O)Cc1cc(Cl)c(Cl)cc1NC(=O)CN)[C@H]1CCCC[C@@H]1N1CCCC1
TGI: > 100 µM

COc1ccc2c(c1)c(=O)c1c(NCCN(C)C)ccc3nnn2c31
TGI: 9.13 µM

ClCc1cccc(CSc2ncnc3c2ncn3Cc2cccc(CCl)c2)c1
GI50: 2.15 µM | TGI: 4.45 µM

O=C(N/N=C/c1cc(Cl)cc(Cl)c1[O-])c1ccccc1.O=C(N/N=C/c1cc(Cl)cc(Cl)c1[O-])c1ccccc1.[Co+2]
GI50: 24.5 µM | TGI: > 100 µM

CC1(C)OC[C@@H](O)[C@H](Br)CO1
TGI: > 100 µM

Cc1ccc2oc3c(c(Br)c(Br)n3C)c(=O)c2c1
TGI: 65.3 µM

Nc1ccc(-c2nc3ccccc3s2)cc1C#Cc1ccccc1
TGI: 52.2 µM

COc1ccc(Cn2cc3c(c2-c2ccccc2)CCc2cnoc2-3)cc1N
GI50: 0.444 µM | TGI: > 100 µM

C[C@@H]1COCCN1c1cc(C2([S@@](C)(=N)=O)CC2)nc(-c2ccnc3[nH]ccc23)n1
GI50: 2.86 µM | TGI: > 44.1 µM

O=c1oc2ccc(-c3ccc(F)cc3F)cc2c(=O)n1-c1ccc(Cl)c(C(F)(F)F)c1
GI50: 3.32 µM | TGI: > 100 µM

CSc1c(CC(=O)Nc2ccc(Cl)cc2)n(Cc2ccccc2)c2ccccc12
TGI: > 100 µM

CN(C)c1ccc(C(c2ccc(Cl)cc2)c2ccc(N(C)C)cc2)cc1
TGI: > 100 µM

O=c1[nH]c(=O)n(C2OC(CO)C(O)C2O)cc1OCC(F)(F)F (stereo not given)
TGI: > 100 µM

N#C/C(N)=C(\C#N)N=CNc1ccc(N)cc1
TGI: > 100 µM

COc1ccc(C2C3CCCC(C3=O)C(c3ccc(OC)cc3)N2N=O)cc1 (stereo not given)
TGI: > 100 µM

COC(=O)[C@@H]1CC(C(CN)c2cn(C(=O)OC(C)(C)C)c3ccccc23)C(=O)N1C(=O)OC(C)(C)C (stereo not given in full)
TGI: > 100 µM

CSCCCNC(=O)c1csc(-c2csc(CCNC(=O)CNC(=O)CNC(=O)OC(C)(C)C)n2)n1
TGI: > 100 µM

Cc1ccc(O)c(C2=CC(c3cccc(Br)c3)SC(N)=N2)c1 (stereo not given)
TGI: > 100 µM

CC[N+](C)(CC)CC(C)(C)C(=O)/C=C/c1ccc(/C=C/C(=O)C(C)(C)C[N+](C)(CC)CC)cc1
TGI: > 100 µM

C=C1C(=O)O[C@H]2[C@H]1CC/C(COC(=O)NCCc1c[nH]c3ccc(Cl)cc13)=C\CC[C@@]1(C)O[C@@H]21
GI50: 5.17 µM | TGI: 17.2 µM

CNS(=O)(=O)OCC1OC(n2cnc3c(N)ncnc32)C(O)C1O (stereo not given)
GI50: > 100 µM | TGI: > 100 µM

Cc1cc(=O)[nH]c(CNC(=O)c2cccc(C(=O)NCc3cc(=O)[nH]c(C)n3)c2)n1
TGI: > 100 µM

COc1cc(/C=C/c2cc(/C=C/c3ccc(O)c(OC)c3)n(C(=O)Nc3ccc(Cl)cc3)n2)ccc1O
GI50: 0.765 µM | TGI: 7.71 µM

COc1cc2c(cc1C1=NC(C)(C)CO1)OCO2
TGI: > 100 µM

NC(=S)N=Nc1c(O)c2ccccc2c2ccccc12
GI50: 27.5 µM | TGI: > 86.8 µM

CCN(CC)CCCNc1[nH]ncc2c(C)c3nc4ccc(OC)cc4c3cc12
TGI: 2.79 µM

COc1cc(-n2ccnc2)cc(OC)c1OC
GI50: 30.5 µM | TGI: > 100 µM

C=CCOc1ccccc1C1(O)c2ccccc2C2=NCCCN21 (stereo not given)
TGI: > 100 µM

Cc1nc2sccn2c1C(=O)NC(=O)Nc1ccc(Cl)cc1
TGI: > 100 µM

O=C(NCc1ccco1)c1cccc(NC2=C(Cl)C(=O)N(Cc3ccccc3)C2=O)c1
GI50: 20.2 µM | TGI: 60.9 µM

Cc1ccc2[nH]c3[nH]c(=S)[nH]c(=O)c3c2c1
TGI: > 100 µM

COc1cc(C2C3=C(COC3=O)N(CCO)c3cc4c(cc32)OCO4)cc(OC)c1O (stereo not given)
GI50: 3.13 µM | TGI: > 50 µM

NNC(=O)c1ccc(OCc2nc3ccccc3[nH]2)cc1
TGI: > 100 µM

N#Cc1c(-c2ccc(Cl)cc2)c2c(N=Nc3c(O)ccc4ccccc34)[nH]nc2[nH]c1=O
TGI: 2.72 µM

COC(=O)/C=C(\S/C=C(/c1ccccc1)N1CCn2c(C(=O)c3ccccc3)c(C(=O)OC)c(C(=O)OC)c21)C(=O)OC
TGI: > 10 µM

O=C(NNS(=O)(=O)c1ccccc1)c1cccnc1
TGI: > 100 µM

NC(=Nc1cccc(Cl)c1)c1ccccc1N
TGI: > 100 µM

COc1ccc(N(/C=C/C(=O)C(F)(F)F)CC(=O)c2ccc(Cl)cc2)cc1
GI50: 16 µM | TGI: 47.5 µM

COP(=O)(OC)/C(=C/c1cn(C(c2ccccc2)(c2ccccc2)c2ccccc2)cn1)NC=O
TGI: 58.8 µM

O=C(c1ccccc1)n1c(-c2ccccc2)cs/c1=N\S(=O)(=O)c1ccc(N2N=C3c4ccccc4CC3C2c2cccs2)cc1 (stereo not given)
GI50: 22.3 µM | TGI: 74.1 µM

COC(=O)/C=c1\s/c(=C\C(=O)OC)c2ccccc12
TGI: > 100 µM

CCOC(=O)C(C)c1nc2ccc(C(F)(F)F)cc2[nH]c1=O (stereo not given)
TGI: > 100 µM

CCn1c2c(c3ccccc31)C(c1ccccc1)CC1C(=O)N(c3ccccc3)C(=O)C21 (stereo not given)
TGI: > 100 µM

CC1(C)CC(=O)c2c(nc3c(ccc4ccccc43)c2-c2ccc(NC(=O)CCCCC(=O)Nc3ccc(-c4c5c(nc6c4ccc4ccccc46)CC(C)(C)CC5=O)cc3)cc2)C1
TGI: 91.2 µM

C=C(C)C(=O)O[C@@H]1C/C(C)=C\[C@H](OC(C)=O)C[C@](C)(O)/C=C2/OC(=O)C(COC(C)=O)=C21
TGI: 21.9 µM

CCOC(=O)C1([Se]c2ccccc2)CCCC1=O (stereo not given)
TGI: > 100 µM

COc1cc(NCCN=C(N)NC(N)=NC(C)C)c2ncccc2c1
GI50: 6.97 µM | TGI: > 73.8 µM

Cc1cccc(C)c1Nc1nc(C)c(C(=O)CC(=O)C(=O)Nc2c(C(C)C)cccc2C(C)C)s1
TGI: > 100 µM

O=C1CSC2=NC3=C(CSC/C3=C\c3ccccc3)C(c3ccccc3)N12 (stereo not given)
TGI: > 100 µM

CCOC(=O)/C=C/C(=O)[C@H](CC(C)C)NC(=O)[C@H](Cc1ccccc1)NC(=O)OCc1ccccc1
GI50: 13.7 µM | TGI: 28.5 µM

Cc1c(N2C(=O)/C(=C/c3ccc(N(CCC#N)CCC#N)cc3)N=C2c2ccccc2)c(=O)n(-c2ccccc2)n1C
TGI: > 100 µM

CNC(=O)OC(COC)CN1CCN(c2ccccc2C)CC1 (stereo not given)
TGI: > 10 µM

C#COc1cccc(Nc2ncnc3cc(NC(=O)[C@H](C)Cl)ccc23)c1
GI50: 9.04 µM | TGI: > 62.5 µM

CC(=O)NNc1nc(C)c(C(=O)NNC(=O)C(=O)Nc2ccc([N+](=O)[O-])cc2C#N)s1
TGI: > 100 µM

CCOC(=O)c1cnn2c3ccccc3n(S(=O)(=O)c3ccc(OC)cc3)c12
GI50: 1.81 µM | TGI: > 100 µM

COc1cc2ccc1OCc1cccc(n1)COc1ccc(cc1OC)C=NCCNCCNCCN=C2
TGI: > 100 µM

NC(=Nc1ccc(N)cc1)C(N)=Nc1ccc(N)cc1
GI50: > 100 µM | TGI: > 100 µM

Nc1nc(=O)n([C@@H]2CS[C@H](CO)O2)cc1F
GI50: > 100 µM | TGI: > 100 µM

CC[C@H](C)C1=C(O)[N@+]2([O-])Oc3ccc(-c4c(O)c(O)c(-c5ccc(O)cc5)c(OC(C)=O)c4OC(C)=O)cc3O[C@]2([C@@H](C)CC)C(=O)N1O
TGI: > 50 µM

Cc1ccc(-c2nc(-c3cn(C)c4ncccc34)cs2)cc1
GI50: 7.24 µM | TGI: 27.1 µM

CN1CCN(CCOc2cc(OC3CCOCC3)c3c(Nc4c(Cl)ccc5c4OCO5)ncnc3c2)CC1
GI50: 0.362 µM and 0.38 µM | TGI: 13 µM and > 10 µM

Cn1c(=O)c2[nH]cnc2n(CC(N)=O)c1=O
TGI: > 100 µM

CN(C)c1ccc(/C=c2/c3ccccc3n3c2c2cc(F)ccc2[n+]3C)cc1
TGI: 17.6 µM

Cc1cccc(NC(=O)/C=C/c2ccc([N+](=O)[O-])cc2)c1
TGI: > 55.3 µM

C=CCc1cc(C(Cc2ccccc2)NC(C)C)cc(OCc2ccccc2)c1OCc1ccccc1 (stereo not given)
TGI: 28.7 µM

Cc1ccc(C)c(NC(=O)CC2SC(=Nc3ccccc3Cl)NC2=O)c1 (stereo not given)
TGI: > 100 µM

O=C(/C=C/C12c3ccccc3C(c3ccccc31)C1C(=O)NC(=O)C12)c1ccc(Cl)cc1 (stereo not given)
GI50: 1.42 µM | TGI: 2.73 µM

OC12c3ccccc3C3CCC4(OCCO4)C3C1c1ccccc12 (stereo not given)
TGI: > 100 µM

CCN1C[C@]2(COC)[C@H](O)C[C@H](OC)[C@]34C1[C@H]([C@H](OC)[C@H]23)[C@]1(OC(C)=O)[C@H]2[C@@H](OC(=O)c3ccccc3)[C@](O)(C[C@H]24)[C@@H](OC)[C@@H]1O
TGI: > 100 µM

O=c1cc(-c2ccccc2)oc2cc(OC/C(=N/O)c3ccc(F)cc3)ccc12
GI50: 12.2 µM | TGI: 38.6 µM

CC(C)(C)OC(=O)Cn1ncn(NC(=O)Cc2ccccc2)c1=O
TGI: > 10 µM

COc1ccc2nc3n(c2c1)C(=O)c1ccccc1-3
TGI: > 100 µM

COc1ccc(C(CC(=O)c2ccccc2)C(C(=O)c2ccccc2)C(c2ccc(OC)cc2)C2C(=O)NC(=S)NC2=O)cc1 (stereo not given)
GI50: 12.5 µM | TGI: 54 µM

COc1ccc2c3c1OC1C34CCN(C)C(C2)C4=CC(I)C1(OC)OC (stereo not given)
TGI: 30.9 µM

N#CCN(CC#N)C1CC=CCC1N(CC#N)CC#N (stereo not given)
TGI: > 100 µM

O=C(CC(=O)c1cccc(Cl)c1)c1cccc(Cl)c1
GI50: 3.33 µM | TGI: > 100 µM

CC(C)(C)C1=CC(=C2C=Cc3ccccc3O2)C=C(C(C)(C)C)C1=O
TGI: 29.3 µM

CCCCCCCC(=O)OCC(=O)[C@]1(O)Cc2c(O)c3c(c(O)c2[C@@H](OC2CC(N)C(O)C(C)O2)C1)C(=O)c1c(OC)cccc1C3=O (stereo not given in full)
GI50: 0.506 µM | TGI: 2.39 µM

C[N+]1(CCC[N+]2(C)CC3C4C=CC(CC4)C3C2)CCOCC1 (stereo not given)
TGI: > 100 µM

O=C(C[P+](c1ccccc1)(c1ccccc1)c1ccccc1)C[P+](c1ccccc1)(c1ccccc1)c1ccccc1
GI50: 0.549 µM | TGI: 1.7 µM

Cc1ccc(NCCN(C)C)c2c(=O)c3ccccc3sc12
GI50: 2.03 µM | TGI: 4.75 µM

CCOC(=O)c1cc(C2CCN(c3ccccc3)C2=O)c(C(=O)/C=C(/C)N)[nH]1 (stereo not given)
TGI: > 100 µM

CC1=C(C)C2(O)C(=C(C)C1=O)/C(=C(/O)c1ccccc1)c1nc3ccccc3n12 (stereo not given)
GI50: 20.4 µM | TGI: 51.7 µM

CC(=O)N(O)Cc1ccccc1
TGI: > 100 µM

Nc1c2c(nc3ccccc13)-c1ccccc1NCCC2
TGI: > 100 µM

CC(=O)OC1CC[C@@]2(C)C(CC[C@]3(C)C2CC=C2[C@@H]4C(C)[C@H](C)CCC4(C)CCC23C)[C@@]1(C)C(=O)O (stereo not given in full)
TGI: 35.7 µM

Cc1cc(Nc2cc(N3CCN(C)CC3)nc(Sc3ccc(NC(=O)C4CC4)cc3)n2)n[nH]1
GI50: > 10 µM | TGI: > 10 µM

CCC(O)c1ccc(N=Cc2ccccc2O)cc1 (stereo not given)
TGI: > 100 µM
